Measurements published in ChEMBL document CHEMBL1201862, “PubChem BioAssay data set” (2004).
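Values below derive from 48-hour exposures of cells grown in 96-well plates, with endpoints linearly interpolated between the two concentrations bracketing the appropriate inhibition level. GI50 = concentration required for 50% inhibition of growth.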 Activity calls are given as the source filed them. Cut-off read from the data, not from the text of the source: active = GI50 up to about 1.1 µM and inactive = higher.

Tested on: NCI-H322M
Assay: inhibition of tumour cell growth, NCI panel, 48 h

SMILES | GI50
CCOC(=O)C1(C#N)C(c2ccccc2)CC(O)(c2ccc([N+](=O)[O-])cc2)C(C(=O)c2ccc([N+](=O)[O-])cc2)C1c1ccccc1 (configuration not stated) | inactive: > 100 µM
Fc1cc(F)c(F)c(S)c1F | inactive: > 100 µM
CCOC(=O)c1csc(NC(=O)C(C)N2CCCC2)n1 (configuration not stated) | inactive: > 100 µM
CCCCCCCCCC1CC(=O)NCC(=O)NC(C(C)C)C(=O)NC(CC(C)C)C(=O)NC(C)C(=O)NC(C(C)C)C(=O)O1 (configuration not stated) | inactive: 14.8 µM
O=C(NCCCCCCNC(=O)n1cc(F)c(=O)[nH]c1=O)NCCCOCCOCCOCCOCCOCCOCCOCCOCCOCCOCCOCCOCCOCCOCCOCCOCCOCCOCCOCCOCCOCCCNC(=O)C(O)C(O)C(OC1OC(CO)C(O)C(O)C1O)C(O)CO (configuration not stated) | inactive: 44 µM
CC(=O)Nc1ccc(/C=c2\sc3nnc(/C=C/c4ccccc4)n3c2=O)cc1 | inactive: > 50 µM
COc1cccc(N2C(=O)C3c4[nH]c5ccccc5c4C4CCCC4C3C2=O)c1 (configuration not stated) | inactive: > 10 µM
Cc1c2ccccc2c(=O)n2c(-c3ccccn3)cccc12 | inactive: 31.8 µM
Cc1cn(C2CCC(/C=N\O)O2)c(=O)[nH]c1=O (configuration not stated) | inactive: > 100 µM
Cc1cc(Nc2ccc(NS(C)(=O)=O)cc2)c2c(ccc3[nH]ccc32)n1 | inactive: 12.9 µM
CCOC(=O)C(NC(=O)CC)(Nc1ccc(F)c(Cl)c1)C(F)(F)F (configuration not stated) | inactive: > 100 µM
O=C(c1cccs1)N(C(=O)N1CCCCC1)c1ccccc1 | inactive: > 100 µM
COc1ccc(CNc2cc(OC)cc(OC)c2)cc1 | inactive: 81.5 µM
COc1cc(S(=O)(=O)N/N=C/C=C/c2ccccc2)c(OC)cc1NC(C)=O | inactive: > 100 µM
COc1ccc(-n2cnc3c(NC(Cc4ccccc4)C(=O)O)ncnc32)cc1 (configuration not stated) | inactive: 87.9 µM
OCCN1CN(c2nc(N3CN(CCO)C3)nc(N3CN(CCO)C3)n2)C1 | inactive: 38.7 µM
CC(C)(C)OC(=O)C(C1NC(C(=O)O)C(C)(C)S1)N1C(=O)c2ccccc2C1=O (configuration not stated) | inactive: > 100 µM
O=[N+]([O-])c1ccc2nnnn2c1 | inactive: 27 µM
O=C(N/N=C/C=C/c1ccccc1)c1ccccc1Nc1ccccc1C(=O)N/N=C/C=C/c1ccccc1 | inactive: > 100 µM
CC(C)C(=O)/C=C/c1ccc(Cl)cc1Cl | inactive: 14.8 µM
COC(=O)CC(SCCO)SCCO | inactive: > 100 µM
O=C(O)C12CC3(C(=O)O)CC(C(=O)O)(CC(C(=O)O)(C1)C3=O)C2=O | inactive: > 100 µM

SMILES | GI50
CC(=O)OCCOCn1cc(C=O)c2ccccc21 | inactive: > 100 µM
COc1ccc(-c2oc3ccccc3c(=O)c2O)cc1OC [3-HYDROXY-3',4'-DIMETHOXYFLAVONE] | inactive: > 100 µM
O=C(O)c1ccc(Nc2nc3ccc(C(F)(F)F)cc3nc2-c2ccccc2)cc1 | inactive: 41.3 µM
Cc1nnc(N)nc1C/C=C/C(C)Sc1ccc(Cl)cc1 (configuration not stated) | inactive: 9.31 µM
COC(=O)C1CCC(=O)N1CN(C(C)=O)c1cccc(O)c1 (configuration not stated) | inactive: > 100 µM
Cc1cc(S(=O)(=O)Nc2nc3ccccc3[nH]2)c(S)cc1Cl | inactive: 55.2 µM
O=C(NC1CCCCCC1)C1C(=O)N(C2CCCCCC2)C(=O)/C1=N\O (configuration not stated) | inactive: 32.7 µM
CC1=C(SCc2ccccc2)C(=O)c2ccccc2C1=O | inactive: 27.3 µM
N/C(=N\Nc1ccc(S(N)(=O)=O)cc1)c1cnccn1 | inactive: > 100 µM
CC1=Nc2c(O)nc(S)nc2NC(c2c(Cl)cccc2Cl)C1 (configuration not stated) | inactive: 6.43 µM
O=c1[nH]c2nccn2c2c1SCCN2 | inactive: > 100 µM
Cc1cccc(C)c1NC(=O)C(C#N)C1=C(Cl)C(=O)c2ccccc2C1=O (configuration not stated) | inactive: 16.1 µM
C/C(=C/C(=O)Nc1ccccc1)Nc1onc(C)c1C | inactive: > 100 µM
O=C1CCCCC1CN1CCCCC1 (configuration not stated) | inactive: > 100 µM
Clc1ccc(Nc2nc(Cl)c3nc[nH]c3n2)cc1Cl | inactive: 33.7 µM
CCCC(C)C[C@@H](C)CC(C)/C=C(\C)c1oc(=O)c(C)c(O)c1C.CC[C@@H](C)C[C@@H](C)C[C@@H](C)/C=C(\C)c1oc(=O)c(C)c(O)c1C (some centres not stated) | inactive: 16.3 µM
CCOC(=O)/C(C(C)=O)=C1/N[C@H](C(=O)OCC)CS1 | inactive: > 100 µM
Cc1cc(O)c(C(O)c2ccccn2)cc1O (configuration not stated) | inactive: > 100 µM
Cc1cccc(Nc2cnc(N)nc2N)c1 | inactive: > 100 µM
C=CCn1cc(C(=O)NC(=O)NCCCCCOC(=O)CCCCCCCCCCC(=O)OCCCCCNC(=O)NC(=O)c2cn(CC=C)c(=O)n(C)c2=O)c(=O)n(C)c1=O | inactive: > 100 µM
CC(=O)OCC1(C)C(O)CCC2(C)C1CCC1CC3CC12CCC3(O)CO (configuration not stated) | inactive: > 100 µM
O=C(OCC(OC(=O)c1ccccc1)C1CC(C2(O)CCCCC2)C(=O)O1)c1ccccc1 (configuration not stated) | inactive: > 25 µM

SMILES | GI50
COC(=O)C(C(=O)c1ccccc1)C(C(=O)C(=O)Nc1ccc(OC)cc1OC)C(=O)C(=O)c1ccc(C)cc1 (configuration not stated) | inactive: > 100 µM
CC(=O)Oc1c2oc3ccc(Cl)cc3c(=O)c2c(O)c2ccsc12 | inactive: > 100 µM
COc1cc([C@@H]2c3cc4c(cc3[C@@H](c3c(O)cc(O)c5c3O[C@H](c3ccc(O)c(O)c3)[C@@H](O)C5)[C@H]3COC(=O)[C@H]23)OCO4)cc(OC)c1OC | inactive: 53.3 µM
CN(C)CCC[N+]1=Nc2cccc3cccc(c23)N1 | inactive: > 100 µM
O=C(CN(C(=O)OC12CC3CC(CC(C3)C1)C2)C(=O)OC12CC3CC(CC(C3)C1)C2)Oc1ccc([N+](=O)[O-])cc1 | inactive: > 100 µM
CN(C)N1C(=O)c2ccccc2NC1c1ccccc1 (configuration not stated) | inactive: > 100 µM
O=S(=O)(/N=S(/Nc1ccccc1)C(Cl)Cl)c1ccccc1 (configuration not stated) | inactive: > 100 µM
CCOC(=O)c1ccc(NCC#CCN2CCOCC2)cc1 | inactive: > 100 µM
Cc1ccc(C)c(N2C(=O)C(=O)C(c3nc4ccccc4s3)/C(=N/NC(=O)NN)C2=O)c1 (configuration not stated) | inactive: > 100 µM
COc1ccc2c(=O)c3ccoc3[nH]c2c1 | inactive: > 100 µM
Cc1c(N)nc([C@H](CC(N)=O)NC[C@H](N)C(N)=O)nc1C(=O)N[C@H](C(=O)N[C@H](C)[C@@H](O)CC(=O)N[C@H](C(=O)NC(O[C@@H]1O[C@@H](C)[C@@H](N)[C@@H](O)[C@H]1O)C(O)c1nc(-c2nc(C(=O)NCCCCN)cs2)cs1)[C@@H](C)O)[C@@H](O[C@@H]1O[C@@H](CO)[C@@H](O)[C@H](O)[C@@H]1O[C@H]1O[C@H](CO)[C@@H](O)[C@H](OC(N)=O)[C@@H]1O)c1c[nH]cn1 (some centres not stated) | inactive: > 50 µM
Cn1c2ccccc2c2c3c(c4c5ccccc5n(C)c4c21)C(=O)N(c1ccccc1)C3=O | inactive: > 100 µM
CN(C)C(=S)N1C(=S)N(c2ccccc2)C(=N/c2ccccc2)/C1=N\c1ccccc1 | inactive: 40 µM
c1csc(-c2ccc(-c3cccc4nsnc34)s2)c1 | inactive: > 100 µM
C[C@@H](c1ccccc1)N1CO[C@@]2(C#Cc3ccc4c(c3)OCO4)CCC[C@@H]12 | inactive: 22.9 µM
CC(C)[C@@H]1CC[C@@H](C)C[C@H]1OC(=O)/C=C1/C2C=CC(O2)C1C(=O)O[C@@H]1C[C@H](C)CC[C@H]1C(C)C (some centres not stated) | inactive: > 100 µM
Cn1c(=O)nc2n(-c3ccc(Cl)cc3)c(-c3ccccc3)c(-c3ccccc3)nc-2c1=O | inactive: 32.3 µM
C/C(=N\NC(=O)CC(=O)Nc1ccc(C)cc1)c1cc2ccccc2oc1=O | inactive: > 100 µM
Oc1ccc2ccccc2c1/N=N/c1ccc(Br)cc1 | inactive: > 100 µM
Cc1cccc(Nc2nc(NNC(=O)Cc3ccccc3)nc(NNC(=O)c3ccncc3)n2)c1 | inactive: > 10 µM
OC1[C@H](O)CN(OCc2ccccc2)C[C@@H]1O (some centres not stated) | inactive: > 100 µM
C=C(CC)C(=O)c1ccc(OCC(=O)O)c(Cl)c1Cl [ETHACRYNIC ACID] | inactive: 33 µM

SMILES | GI50
O=C(O)c1nccnc1C(=O)O | inactive: > 100 µM
COc1ccc(/C=N/N=C(\N)NO)cc1OC | inactive: 40.1 µM
Cc1cc(S(=O)(=O)Nc2nc(Nc3ccccc3)n[nH]2)c(SCC(=O)O)cc1Cl | inactive: > 100 µM
[N-]=[N+]=C1N=CN=C1c1nc[nH]n1 | inactive: > 100 µM
CC[C@H]1C=CCC[C@@]2(C[C@@H]3CC[C@@H]4[C@H](C(=O)OCCCCCCCCCCCCCCCC(=O)N(CCCNC(C)=O)C[C@H](CCNC(C)=O)OC(C)=O)[C@]5(CCC[C@@H](C)O5)NC(=[N+]34)N2)O1 | active: 0.544 µM
O=C(O)CN(CC(=O)O)C1CCCCC1N1CC(=O)OC(=O)C1 (configuration not stated) | inactive: > 100 µM
CC(C)Nc1n[nH]c(=O)n1C(C)C | inactive: > 100 µM
CC(C)(C)OC(=O)N[C@H]1CC2(C=C(Cl)C(=O)C(Cl)=C2)OC1=O | inactive: > 53.3 µM
Fc1cccc(F)c1C1SCc2nc3cc4ccccc4cc3n21 (configuration not stated) | inactive: 45.2 µM
O=C1NC(=O)C2C(=O)NC(=O)C1C2(c1ccccc1)c1ccc(Cl)cc1 (configuration not stated) | inactive: > 100 µM
C[C@@H]1CCC2[C@@H](C)[C@H](O[C@H]3O[C@@H]4O[C@@]5(C)CCC6[C@H](C)CCC([C@H]3C)[C@]64OO5)O[C@@H]3O[C@@]4(C)CCC1[C@@]23OO4 (some centres not stated) | inactive: 5.71 µM
CC(C)CCc1c(Cl)nc(Cl)nc1Cl | inactive: 17.3 µM
CCCNC(=O)c1cc(OC)c(OC)cc1NC(=O)C12CC3CC(CC(C3)C1)C2 | inactive: 17 µM
FC(F)(F)c1ccccc1C1SCc2nc3ccccc3n21 (configuration not stated) | inactive: 97.7 µM
COC1CC(C)(NC(=O)C(F)(F)F)C2OC(c3ccccc3)OCC2O1 (configuration not stated) | inactive: > 100 µM
CC(=O)OCc1c(C)c2ccccc2n1C(C)=O | inactive: > 100 µM
N#CCCN(CCC#N)c1ccc(/C=C(/NC(=O)c2cc([N+](=O)[O-])ccc2Cl)C(=O)NN)cc1 | inactive: > 100 µM
O=C(Cc1ccccc1)NN1C(=O)/C(=C\c2ccccc2)S/C1=N\c1ccccc1 | inactive: > 100 µM
C(=C\c1cc(-c2ccc3ccccc3n2)nc2ccc3ccccc3c12)/c1ccc2ccccc2n1 | inactive: > 100 µM
O=C(c1ccccc1)c1c(C(F)(F)F)[n+]([O-])c2cc(Cl)c(Cl)cc2[n+]1[O-] | inactive: 4.75 µM
CC/C=C1\N=C(c2ccc(Cl)cc2)OC1=O | inactive: > 100 µM
